Results as given in PubChem BioAssay AID1461 (National Center for Advancing Translational Sciences (NCATS), 2008).
Among all 220,000 compounds or so, about 2,300 (1%) were called active. This list was built around the results that the source calls inconclusive (neither active nor inactive); the mix of calls is not that of the screen. Calls come from the whole dose curve; as a rule, active = well fitted inhibition curve with a large enough effect; inconclusive = small, poorly fitted or top-dose-only effect, or effect the other way; inactive = no such curve, though single readings can be large or run the other way. Potencies beside an inconclusive call are fits to weak or partial responses and may not hold up.

biological target: Neuropeptide S receptor (Homo sapiens) (UniProt Q6W5P4); test: qHTS Assay for Antagonists of the Neuropeptide S Receptor: cAMP Signal Transduction; conditions: CHO-NPSR cells, cAMP TR-FRET, antagonist mode; activity change, negative = inhibition: at 38.3 µM (top of the series) unless noted; note: nearly all actives have a fitted effect of over 50% in size
% is set by controls: 0 for no effect and ±100 for the full control effect; potency is the fitted concentration of half-maximal effect; tags give direction and shape of the fitted curve.

Sequence of UniProt Q6W5P4 (Q6W5P4 whole entry, looked up): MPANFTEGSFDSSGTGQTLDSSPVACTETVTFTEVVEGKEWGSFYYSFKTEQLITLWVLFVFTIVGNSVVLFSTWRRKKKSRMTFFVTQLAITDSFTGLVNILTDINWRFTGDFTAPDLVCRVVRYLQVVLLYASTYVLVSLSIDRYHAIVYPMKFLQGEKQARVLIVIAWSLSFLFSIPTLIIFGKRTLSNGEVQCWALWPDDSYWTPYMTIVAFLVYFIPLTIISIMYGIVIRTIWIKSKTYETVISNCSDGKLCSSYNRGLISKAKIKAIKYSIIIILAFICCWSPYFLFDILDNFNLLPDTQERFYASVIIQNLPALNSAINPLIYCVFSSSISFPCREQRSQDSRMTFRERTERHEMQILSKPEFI

| Compound | activity change, negative = inhibition | Potency |
| --- | --- | --- |
| Cc1cc(O)c2c(c1)C(=O)c1cc(O)cc(O)c1C2=O | inactive: -17.5% [at 46.1 µM] | – |
| Cc1ccc(NS(=O)(=O)c2ccc(OCC(N)=O)cc2)cc1 | inactive: 9.07% | – |
| COc1ccccc1N1CCN(C(=O)c2cc(-c3ccc4c(c3)OCO4)on2)CC1 | – | inconclusive: 0.398 µM [inhibitor, full curve] |
| COc1cccc(C(=O)CSc2nnc(-c3cccs3)o2)c1 | – | inconclusive: 3.16 µM [inhibitor, single point] |
| CN(C)CCCNc1cc(C(C)(C)C)nc2c(-c3ccc(Cl)cc3)cnn12 | – | inconclusive: 10 µM [activator, partial curve] |
| CC(C)(C=O)C1=CC(=O)c2ccccc2C1=O | – | inconclusive: 12.6 µM [inhibitor, single point] |
| Cc1ccc2nc(SCC(=O)O)nc(C)c2c1 | inactive: 18% [at 46.1 µM] | – |
| O=C(c1ccc(-c2cccc(Cl)c2)o1)N1CCN(c2ccc([N+](=O)[O-])cc2)CC1 | inactive: -8.25% | – |
| Cc1sc2ncnc(NCC(c3ccco3)N(C)C)c2c1C (configuration not stated) | – | inconclusive: 15.8 µM [inhibitor, partial curve] |
| CCN(CC)c1ccc(NC(=O)c2nc3nc(C)cc(C(F)F)n3n2)cc1 | – | inconclusive: 12.6 µM [inhibitor, partial curve, poor fit] |
| CN(C)/C=C1\C=C(c2ccccc2)OC1=O | – | inconclusive: 10 µM [inhibitor, partial curve] |
| OC(COc1ccc2cc(Br)ccc2c1)CN1CCN(c2ccccn2)CC1 (configuration not stated) | – | inconclusive: 25.1 µM [inhibitor, single point] |
| N.N.O=C(O)C1(C(=O)O)CCC1.[Pt] | inactive: -8.37% [at 46.1 µM] | – |
| CCCNC(=O)C(=O)NCCC1=CCCCC1 | inactive: 0.0534% [at 46.1 µM] | – |
| O=C(/C=C/c1ccccc1[N+](=O)[O-])c1ccccc1Br | inactive: -48% | – |
| CC(C)(c1ccccc1)c1ccc(OCCn2cnc3ccccc3c2=O)cc1 | – | inconclusive: 15.8 µM [inhibitor, single point] |
| CC(=O)N(Cc1c(C)nn(-c2ccccc2)c1Cl)c1ccc(Cl)cc1 | – | inconclusive: 12.6 µM [inhibitor, partial curve] |
| CC(C)Cn1c(/C=N/Nc2nc3ccccc3[nH]2)nc2ccccc21 | – | inconclusive: 10 µM [inhibitor, single point] |
| C=CCNC(=O)/C(C#N)=C/c1ccc(C(=O)O)cc1 | inactive: 3.08% | – |
| N#Cc1sc2nc(C3CC3)cc(-c3ccc(Cl)cc3)c2c1N | – | inconclusive: 15.8 µM [inhibitor, single point] |
| O=S(=O)(c1ccc(-c2csc(-c3cccnc3)n2)cc1)N1CCCCC1 | – | inconclusive: 25.1 µM [inhibitor, partial curve] |
| C=CCOC(=O)C1=C(C)NC(SCC)=C(C#N)C1c1ccc(Cl)cc1 (configuration not stated) | – | active: 10 µM |
| CNC(=O)/C(C#N)=C/c1ccc(-c2nc3ccccc3s2)o1 | – | inconclusive: 25.1 µM [inhibitor, single point] |
| Nc1nc(-c2ccc3c(c2)OCCO3)cs1 | inactive: -8.66% [at 46.1 µM] | – |

| Compound | activity change, negative = inhibition | Potency |
| --- | --- | --- |
| Cc1cccc(NC(=S)Nc2ccccn2)c1 | – | inconclusive: 25.1 µM [activator, single point] |
| COc1cc(/C=C2\SC(=S)N(NS(=O)(=O)c3ccc(C)cc3)C2=O)ccc1O | – | inconclusive: 5.01 µM [activator, partial curve] |
| O=C(O)C1CC=CCC1C(=O)N1CCN(c2nc(-c3ccccc3Cl)c3cc(Br)ccc3n2)CC1 (configuration not stated) | – | active: 12.6 µM |
| Cc1nc(-c2cccc(NS(C)(=O)=O)c2)cs1 | inactive: -3.6% [at 46.1 µM] | – |
| O=C1CNC(=S)N1c1nc2ccccc2s1 | – | inconclusive: 25.1 µM [inhibitor, single point] |
| COc1ccc(OC)c2c1sc(=NC(=O)C(C)C)n2C | inactive: -23.4% [at 46.1 µM] | – |
| O=C(CC1Sc2ccccc2NC1=O)NCc1ccccc1 (configuration not stated) | inactive: -2.67% [at 7.67 µM] | – |
| CC(C)Oc1ccc(Cc2cnc(=S)[nH]c2N)cc1 | inactive: 4.67% | – |
| CCOC(=O)c1c(-c2cccs2)csc1NC(=O)CN1CC(C)OC(C)C1 (configuration not stated) | – | inconclusive: 12.6 µM [inhibitor, partial curve, poor fit] |
| COc1ccc(OC)c(C2CC(=O)c3c([nH]c(C(=O)OC(C)C)c3C)C2)c1 (configuration not stated) | – | inconclusive: 6.31 µM [activator, partial curve, poor fit] |
| CCn1c(COc2ccc3c(c2)OCO3)nnc1SCC(=O)c1ccccc1 | – | inconclusive: 0.794 µM [inhibitor, full curve, poor fit] |
| CCCn1c(SCC(=O)c2cc(OC)ccc2OC)nnc1C(C)C | – | inconclusive: 12.6 µM [inhibitor, partial curve] |
| COc1cccc(OC)c1C(=O)NC(=S)Nc1ccc2c(c1)Cc1ccccc1-2 | – | inconclusive: 25.1 µM [inhibitor, single point] |
| CCCN(CC1CC1)C(=O)CSc1nnc(-c2cc(-c3cccs3)nc3ccccc23)o1 | – | inconclusive: 20 µM [inhibitor, single point] |
| COc1ccc(/C(O)=C2\C(=O)C(=O)N(c3cc(C)on3)C2c2ccccc2OC)cc1C (configuration not stated) | inactive: 1.79% [at 46.1 µM] | – |
| CC(=O)Oc1cc2cccc(OC(C)=O)c(=O)c2c(OC(C)=O)c1OC(C)=O | inactive: -3.86% | – |
| CCOC(=O)C1=C(c2ccccc2)NC(N)=NC1c1ccc(OCc2ccc(Cl)cc2)c(OC)c1 (configuration not stated) | – | inconclusive: 25.1 µM [activator, single point] |
| CCCc1cc(C(=O)N/N=C/c2ccc(CC)s2)c2ccccc2n1 | – | inconclusive: 20 µM [inhibitor, single point] |
| NC(CO)C(=O)NNCc1ccc(O)c(O)c1O (configuration not stated) | – | inconclusive: 5.01 µM [inhibitor, single point] |
| CCO[C@H]1OC(C(=O)N2CCN(Cc3ccc4c(c3)OCO4)CC2)=C[C@@H](c2ccc(Br)cc2)[C@@H]1CCCO | – | inconclusive: 12.6 µM [activator, partial curve] |
| CCCOc1ccc(Oc2nc(-c3ccncc3)nc3ccccc23)cc1 | – | inconclusive: 12.6 µM [activator, single point] |
| Cc1ccc(S(=O)(=O)Nc2ccc(-c3nc4cc(NS(=O)(=O)c5ccc(C)cc5)ccc4o3)cc2)cc1 | – | active: 10 µM |
| O=C(Nc1cccc(Cl)c1)c1csc(-c2ccccc2)n1 | – | inconclusive: 20 µM [inhibitor, single point] |
| CC[n+]1c(/C=C/c2ccc(N(C)C)cc2)ccc2ccccc21 | – | active: 5.01 µM |

| Compound | activity change, negative = inhibition | Potency |
| --- | --- | --- |
| Oc1ccc(Cl)cc1C1=Nc2ccccc2N=C(c2ccco2)C1 | – | inconclusive: 15.8 µM [activator, single point] |
| CCCc1nc2ccccc2c(=O)n1NC(=O)c1c(O)c2ccccc2n(C)c1=O | – | inconclusive: 10 µM [activator, single point] |
| O=C(CSc1nnc(-c2ccc(C(F)(F)F)cn2)s1)c1ccccc1 | inactive: -0.0257% | – |
| Cc1nc2sc(C(N)=O)c(N)c2c2c1CCCC2 | inactive: -15.8% | – |
| Cn1c(Cc2ccccc2)nnc1SCC(=O)Nc1ccc2c(c1)OCCO2 | – | inconclusive: 25.1 µM [inhibitor, single point] |
| CCOC(=O)c1c(NC(=O)CN2CCCc3ccccc32)sc(C)c1C | inactive: -47.9% | – |
| Cc1cccc2cc(C#N)c(SCC(=O)N3CC(=O)Nc4ccccc43)nc12 | – | inconclusive: 10 µM [inhibitor, single point] |
| Cc1ccc(C)c(NC(=S)NCCc2ccc(F)cc2)c1 | inactive: -16.2% [at 46.1 µM] | – |
| CC(C)Nc1nnc(SCC(=O)/C=C2\N(C)c3ccccc3C2(C)C)s1 | – | inconclusive: 25.1 µM [inhibitor, single point] |
| Cc1ccc(NS(=O)(=O)c2cc(C(=O)N3CCc4ccccc4C3)ccc2Cl)cc1 | – | inconclusive: 20 µM [inhibitor, single point] |
| CCCn1c(SCC(=O)Nc2nnc(-c3ccccc3)s2)nnc1-c1ccccn1 | inconclusive: -34.6% [inhibitor] [at 46.1 µM] | – |
| c1ccc2c(CSc3nnc(-c4ccncc4)o3)cccc2c1 | – | inconclusive: 31.6 µM [inhibitor, single point] |
| COc1ccc(CN2C(=O)C(O)(CC(=O)c3ccc4c(c3)OCO4)c3ccccc32)cc1OC (configuration not stated) | inactive: -7% [at 46.1 µM] | – |
| COc1ccc(C(=O)/C=C/c2ccc(OC3CSC3)cc2)cc1OC | inactive: 3.38% | – |
| Cc1cc(C)c(S(=O)(=O)Nc2ccc3c(c2)CCC3)c(C)c1 | – | inconclusive: 25.1 µM [inhibitor, single point] |
| COc1cc(C2Oc3ccccc3C=C2[N+](=O)[O-])cc(OC)c1OC (configuration not stated) | – | inconclusive: 25.1 µM [inhibitor, single point] |
| COc1ccc(C[C@H]2CN3C(=NC[C@@H]3Cc3ccccc3)N2CCNC(=O)CCC2CCCCC2)cc1 | – | inconclusive: 10 µM [activator, partial curve] |
| CCCn1c(/C=N/Nc2nc3ccccc3[nH]2)nc2ccccc21 | – | inconclusive: 10 µM [inhibitor, single point] |
| CCOC(=O)c1ccccc1NC(=O)c1cncc(Br)c1 | – | inconclusive: 10 µM [activator, partial curve] |
| O=C(NC1CCCC1)c1cnn2c(C(F)(F)F)cc(-c3ccc4c(c3)OCO4)nc12 | – | inconclusive: 2.51 µM [inhibitor, full curve] |
| CCOC(=O)C1=C(C)NC2=C(C(=O)c3ccccc32)C1c1cccc2ccccc12 (configuration not stated) | – | inconclusive: 10 µM [inhibitor, single point] |
| COC(=O)c1ccc2c(=O)[nH]c(CN3c4ccccc4CC3C)nc2c1 (configuration not stated) | inactive: -7.17% [at 46.1 µM] | – |
| O=c1c(-c2cc3ccccc3o2)[n+]([O-])c2ccccc2n1OCc1ccccn1 | – | inconclusive: 12.6 µM [inhibitor, partial curve, poor fit] |
| CCN1C(=O)C2C(C1=O)N1C(c3cccs3)C3C(=O)N(CC)C(=O)C3N1C2c1cccs1 (configuration not stated) | inactive: -7.59% [at 46.1 µM] | – |
